Laboratory results taken from PubChem BioAssay AID1240 (Sanford-Burnham Center for Chemical Genomics, 2008).
About 800 (1.6%) of roughly 50,000 compounds showed an effect of 50% or more. The list shows a part of the results.

Target: Bcl-2-like protein 10 (Homo sapiens) (UniProt Q9HD36)
Experiment: Phenotype converters, Bcl-B/TR3 peptide binding displacement, primary biochemical FP (AID 1240);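 also: 0% = Bcl-B with tracer peptide and DMSO and 100% = tracer peptide lacking Bcl-B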
Conditions: GST-Bcl-B / FITC-TR3 peptide fluorescence polarization; stronger effect = higher value; compound at 3.75 mg/L

UniProt Q9HD36, sequence (Q9HD36 whole entry, looked up): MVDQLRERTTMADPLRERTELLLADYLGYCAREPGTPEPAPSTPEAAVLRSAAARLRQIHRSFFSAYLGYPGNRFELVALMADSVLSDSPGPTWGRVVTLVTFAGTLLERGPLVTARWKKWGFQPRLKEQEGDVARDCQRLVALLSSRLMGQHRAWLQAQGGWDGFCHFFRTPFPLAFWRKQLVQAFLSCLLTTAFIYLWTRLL

Point of comparison: O=S(=O)(Cc1ccccc1)Nc1ccc(Br)cn1, displacement 10.3%. Against it:
- CCOC(=O)c1sc(NC(=O)c2ccncc2)nc1C — lower, 4.1%
- Cc1ccc(/C=C/C(=O)Nc2ccc(F)cc2)o1 — lower, 7.5%
- c1ccc(-n2c(SCc3ccncc3)nnc2-c2ccco2)cc1 — lower, -5.6%
- CCc1cc(C)cc(OCCOc2cccc(/C=C3/SC(=S)N(C)C3=O)c2)c1 — higher, 15.9%
- COc1ccc(-n2nc3cc(C)c(NC(=O)COc4ccc(C)cc4)cc3n2)cc1 — lower, 0.8%
- CCNc1cc(Nc2ccccc2)c2c3c(onc13)-c1ccccc1C2=O — higher, 12.6%
- COc1ccc(Cl)cc1C(=O)Nc1cc(C(F)(F)F)ccc1Cl — lower, -8.5%
- O=C(Nc1cc(-c2ccc(F)cc2)[nH]n1)c1ccccc1[N+](=O)[O-] — higher, 11.5%
- COc1ccc(CNCc2ccc(F)cc2)cc1OC — lower, 1.2%
- O=C(Nc1ccc(Cl)c(Cl)c1)Nc1nnc(-c2ccccc2F)s1 — higher, 13.4%
- COc1ccc(-c2cc3nc[nH]c(=O)c3s2)cc1 — lower, -9.8%
- CC(NCc1ccc2c(c1)OCO2)C12CC3CC(CC(C3)C1)C2 (stereo not drawn) — lower, -13.9%
- COc1ccc(-n2nc3cc(C)c(NC(=O)c4ccc(OC)c(OC)c4)cc3n2)cc1 — lower, 2.2%
- COC(=O)c1cc(C(=O)Nc2ncccc2C)cc([N+](=O)[O-])c1 — higher, 55.2%
- COC(=O)CCN1C(=O)/C(=C\c2ccc([N+](=O)[O-])cc2)SC1=S — lower, -5.7%
- CC1(C)CNC(=O)c2sc(N)nc2C1 — lower, -0.7%
- O=C1C(=O)N(CC2CCCO2)C(c2ccc(F)cc2)/C1=C(/O)c1ccccc1 (stereo not drawn) — higher, 17.1%
- Cc1nc2cc(-c3ccc(F)cc3)[nH]n2c(=O)c1C — lower, -7.3%
- Cc1ccc([N+](=O)[O-])cc1-c1ccc(/C=C2/C(=O)NN(c3ccc(Cl)cc3)C2=O)o1 — higher, 23.7%
- COc1ccc(C(=S)N2CCN(c3ccccc3)CC2)cc1 — lower, 9.6%
- O=C(c1ccc(C#CC2(O)CCCCC2)cc1)N1CCN(c2ccc(F)cc2)CC1 — lower, 4.5%
- CCOc1ccc(NC(=O)c2ccc(C)c([N+](=O)[O-])c2)cc1 — higher, 12.7%
- Cc1ccc(CNC(=O)C(=O)Nc2cccc3ccccc23)cc1 — lower, 5.6%
- COc1ccc(Cl)cc1NC(=O)c1cc(-c2cccs2)nc2ccccc12 — lower, 8.5%
- COc1ccc(C2CC(c3ccc(Br)cc3)=NN2C(=O)CCC(=O)O)cc1 (stereo not drawn) — lower, -13.5%
- Cc1cc(C)nc(SCC(=O)N/N=C/c2ccc([N+](=O)[O-])cc2)n1 — higher, 11.5%
- O=C(CSCc1ccc(Cl)cc1)N/N=C/c1ccc(Sc2cccc3cccnc23)o1 — higher, 25.1%
- O=C1CC(N2CCC(Cc3ccccc3)CC2)C(=O)N1c1cccc(Br)c1 (stereo not drawn) — lower, -2.6%
- CCOC(=O)c1ccc(NC(=S)NC(NC(=O)c2ccccc2Br)C(Cl)(Cl)Cl)cc1 (stereo not drawn) — higher, 11.2%
- Cc1ccc(S(=O)(=O)/N=C(/Nc2ccc(C)c(Cl)c2)Nc2nc(C)cc(C)n2)cc1 — lower, 7.3%
- O=C(/C=C/c1ccc(OCc2ccccc2)cc1)c1ccc(Br)cc1 — higher, 12.1%
- CCc1ccc(NC(=O)C2CC(=O)N=C(N)S2)cc1 (stereo not drawn) — lower, -2.4%
- O=C1C2C3C=CC(C3)C2C(=O)N1c1cc([N+](=O)[O-])ccc1O (stereo not drawn) — lower, -6.2%
- COc1ccc([N+](=O)[O-])cc1N1C(=O)C2C3c4ccccc4C(C(C)=O)(c4ccccc43)C2C1=O (stereo not drawn) — lower, -9.5%
- COc1ccc(C(=O)Nc2ccc(N3CCN(C(C)=O)CC3)cc2)cc1 — lower, 3.9%
- C=CCNC(=S)Nc1nc(C)c(C)s1 — lower, -2.5%
- Cn1cc(C(=O)N/N=C/C=C(\Br)c2ccccc2)ccc1=O — lower, 3%
- Cc1cccc(-n2c(CCN3C(=O)c4ccccc4C3=O)nc3ccccc3c2=O)n1 — lower, -0.9%
- CC(C)(C)NC(=O)CSc1ncccn1 — higher, 12.1%
- COc1ccc(OC)c(/C=C2/SC(=O)N(CNc3ccc(Br)cc3C)C2=O)c1 — higher, 90.9%
- C#Cc1c(C)n(-c2ccccc2)c2c(=O)n(Cc3ccccc3)cnc12 — lower, 9%
- N/C(=N\OC(=O)c1ccc(Br)cc1)c1ccccn1 — lower, 2.2%
- CCOc1cc(/C=N/NC(=O)COc2ccc(Cl)cc2Br)cc([N+](=O)[O-])c1O — lower, 5.9%
- COC(=O)CCC(=O)NCCc1c[nH]c2ccc(OC)cc12 — higher, 11.1%
- Cc1no[n+]([O-])c1COc1ccc(/C=C2\NC(=S)NC2=O)cc1 — lower, -73.2%
- COc1cc(OC)c(OC)cc1CN1CCN(Cc2cc(Br)ccc2O)CC1 — higher, 11.3%
- O=C(N1CCN(c2c(F)c(F)c(C(F)(F)F)c(F)c2F)CC1)C12CC3CC(CC(C3)C1)C2 — higher, 16.6%
- CC(/C=C/c1ccc(N(C)C)cc1)=N\N=C(/N)SC1CC(=O)N(c2ccc(F)cc2)C1=O (stereo not drawn) — lower, -8.3%
- O=C(Nc1ccc(Br)cc1)c1cccc(S(=O)(=O)NC2CCCCC2)c1 — lower, -8.9%
- COc1ccc(N(CC(=O)NCC(C)C)S(C)(=O)=O)c(OC)c1 — lower, -2.8%
- C=C(C)Cn1c(SCC(=O)OC)nc2sc3c(c2c1=O)CCC(C(C)(C)C)C3 (stereo not drawn) — lower, -6.4%
- COC(=O)c1ccccc1NC(=O)c1ccncc1 — lower, -0.4%
- O=[N+]([O-])c1ccc(NCCCNS(=O)(=O)c2ccc3ccccc3c2)cc1 — lower, 4.1%
- C=CCN1C(=O)c2ccccc2C1(O)c1ccc(F)cc1 (stereo not drawn) — lower, -8.4%
- C#CCOc1ccc(Br)c(/C=N/NS(=O)(=O)c2ccc(C)cc2)c1 — lower, -5.8%
- O=C(c1ccc(Cl)cc1[N+](=O)[O-])N1CCN(C(c2ccccc2)c2ccccc2)CC1 — lower, 4.7%
- O=C(/C=C/c1cccc(NC(=O)c2ccc([N+](=O)[O-])cc2)c1)c1ccccc1 — lower, 1%
- CCOC(=O)c1ccc(NC(=S)NC(NC(=O)c2ccccc2Cl)C(Cl)(Cl)Cl)cc1 (stereo not drawn) — lower, -1.3%
- CC(C)(C)c1nnc(NC(=O)CSc2nnnn2-c2ccccc2)s1 — lower, 2.2%
- O=C(O)CCC(=O)Nc1ccccc1C(=O)Nc1ccccc1 — lower, -5.3%
- COc1ccc(NC(=O)C(NC(=O)c2ccccc2)C23CC4CC(CC(C4)C2)C3)cc1 (stereo not drawn) — lower, -6%
- C(=N\n1cnnc1)/c1cccc(OCCOc2ccc(C3CCCCC3)cc2)c1 — lower, -7.4%
- CCn1c(C(O)c2cc(OC)c(OC)c(OC)c2)nc2ccccc21 (stereo not drawn) — lower, -5.2%
- C=CCn1c2ccccc2n2cc(-c3cccs3)nc12 — lower, -8.8%
- CN(C)c1ccc(/C=C/C(=O)c2ccc3ccccc3c2)cc1 — lower, -29.8%
- O=C(c1ccccc1I)N1CCN(c2ccccc2)CC1 — lower, -1.2%
- O=C(O)/C=C/c1ccc(-c2ccc(Cl)c(Cl)c2)o1 — lower, -2.2%
- Cc1ccccc1C(=O)NNC(=O)c1ccc(Br)cc1 — lower, -6.4%
- O=C(CC(c1ccccc1)c1ccccc1)NCC1(c2ccccc2)CCOCC1 — lower, -10.2%
- COc1ccc(NC(=O)c2ccc(Cl)cc2)c2ncccc12 — lower, 6.5%
- CCOc1ccc(NC(=O)CSc2nc(C)cc(C)n2)cc1 — lower, 7.4%
- Cc1cc(NC(=O)c2cc3ccccc3o2)ccc1NC(=O)c1ccccc1 — lower, -2.7%
- O=C(N=Nc1c(O)n(CN2CCOCC2)c2ccccc12)c1ccccc1 — lower, -4.3%
- COc1cc2c(cc1NC(=O)COc1ccc(C)cc1C)oc1ccccc12 — lower, 1.8%
- Cc1cnc2cc(Cl)c(Cl)cc2n1 — lower, 10%
- CC1(C)CC(NC(=O)/C=C/c2ccccc2)CC(C)(C)N1 — lower, 9.4%
- Cc1cccc(C(=O)Nc2sc3c(c2C(=O)NCc2ccco2)CCC(C)C3)c1 (stereo not drawn) — lower, -2.7%
- C=CCn1c(SCC(=O)c2ccc(OC)cc2)nc2sc3c(c2c1=O)CCCC3 — higher, 10.5%
- CSc1ccc(CN2CCN(C(=O)c3cccc(F)c3)CC2)cc1 — lower, -15%
- Cc1cccc(C(=O)Nc2ccc3c(c2)OCO3)c1 — higher, 11.6%
- Cc1ccc(P(=O)(CCCO)c2ccc(C)cc2)cc1 — lower, 3.6%
- CC(=O)Nc1ccccc1C(=O)Nc1ccccc1 — lower, 5.4%
- CCOC(=O)COc1c(Cl)cc(/C=C2\C(=O)NC(=O)N(c3ccc(C)cc3)C2=O)cc1Cl — lower, -4%
- CCc1ccccc1N1C(=O)/C(=C/c2cc(C)n(-c3cccnc3)c2C)C(=O)NC1=S — lower, -0.4%
- CCCCNC(=O)C(Sc1ccccc1)c1ccccc1 (stereo not drawn) — lower, -13.3%
- COc1ccc(CC(=O)Nc2ccc3c(c2)OCO3)cc1OC — lower, -12.8%
- Cc1cc(Nc2ccc3c(c2)OCO3)n2c(nc3ccccc32)c1C#N — higher, 135%
- Nc1nc2ccccc2n1/N=C/c1ccccc1 — lower, 5.8%
- O=C(Nc1ccc2oc(-c3cccc(Cl)c3Cl)nc2c1)c1ccccc1[N+](=O)[O-] — lower, -1.1%
- COc1ccc(Br)cc1/C=C/C(=O)Nc1ccc(C)cc1[N+](=O)[O-] — higher, 87.4%
- Cn1c(O)c(C=NCC2CCN(C(=S)Nc3ccccc3)CC2)c(=O)n(C)c1=O — lower, -7%
- O=C(NN1CCOCC1)c1ccc([N+](=O)[O-])cc1[N+](=O)[O-] — lower, 8.7%
- CCc1ncc(C(O)(c2ccccc2)c2ccc(C)cc2)n1C (stereo not drawn) — lower, -7.2%
- Cc1cccc(C(=O)Nc2nc3ccc(Br)cc3s2)c1 — lower, 9.2%
- CCOCCOC(=O)C1=C(C)NC2=C(C(=O)CCC2)C1c1cccc(Cl)c1Cl (stereo not drawn) — lower, 6.8%
- O=C(NCCCN1CCOCC1)/C(=C/c1ccc(-c2ccc(Br)cc2)o1)NC(=O)c1ccccc1 — lower, 7.3%
- COC(=O)c1c(C)oc2cc(Br)c(OCc3ccccc3F)cc12 — the same, 10.3%
- C=CCN1C(=O)/C(=C\c2cc3c(cc2Br)OCO3)C(=O)NC1=S — lower, 6.8%
- COc1ccc2oc(=O)c(C(=O)NCc3ccccc3)cc2c1 — higher, 17%
- CCOc1ccccc1N1CCN(C(=O)c2cc(Cl)ccc2[N+](=O)[O-])CC1 — lower, -5.4%
- O=C(c1ccccc1)c1cc(Cl)ccc1N=Cc1ccc(Br)s1 — lower, -0.1%
- CCOC(=O)C1=C(O)/C(=C/c2cc(C)n(-c3ccccc3)c2C)N=C1C — higher, 26.1%
- COc1cc2nc(CCCOc3ccc(Cl)cc3Cl)oc(=O)c2cc1OC — lower, 5.7%
- Cc1cccc(OCC(=O)Nc2ccc(C)c(C)c2)c1 — lower, -13.9%
- CCN(CC)C(=O)C12CC3CC(C1)CC(C(=O)N(CC)CC)(C3)C2 — lower, -6.4%
- CC(=O)NS(=O)(=O)c1ccc(NC(=O)c2ccccc2OC(C)=O)cc1 — lower, -2.6%
- COc1ccc(-c2csc(Nc3ccccc3OC)n2)cc1 — lower, -9.7%
